Source: a collection of fitness landscapes (doi:10.1016/j.celrep.2020.107928)
Over roughly 81,000 sequences, “one-hybrid fitness for binding parS DNA” has its median near -0.17; the highest 2% begin near 0.51. The list shows a part of the results.

B1: Caulobacter ParB omega fusion; a variant is named by its letters at X, in order, B8GW30 (parent)
chain: MESVVVGEPGMSEGRRGLGRGLSALLGEVDAAPAQAPGEQLGGSREAPIEILQRNPDQPRRTFREEDLEDLSNSIREKGVLQPILVRPSPDTAGEYQIVAGERAWRAAQRAGLKTVPIMVRELDDLAVLEIGIIENVQRADLNVLEEALSYKVLMEKFERTQENIAQTIGKSXSHVANXMRLLXLPDEVQSYLVSGELTAXHARAIAAAADPVALAKQIIEGGLSVRETEALARKAPNLSAGKSKGGRPPRVKDTDTQALESDLSSVLGLDVSIDHRGSTGTLTITYATLEQLDDLCNRLTRGI

Variants of: B1
Test: one-hybrid fitness for binding parS DNA (scaled: cognate 1, non-cognate 0); higher = stronger binding
Settings: with parS DNA site
Procedure, shortened: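 In E. coli USO, a HIS3 reporter with its site placed 19 bp from the promoter was used to select Caulobacter ParB variants randomised at four specificity codons. Growth lasted 48 hours at 37°C on histidine-free M9 containing 0.1 mM IPTG and 5 mM 3-AT. Fitness was taken as the log change in variant-to-wild-type read ratio from Illumina sequencing of pre- and post-selection plasmids, rescaled between the non-cognate and cognate sites.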

| Variant | one-hybrid fitness for binding parS DNA |
| --- | --- |
| TAQR | ≤ 0.2 |
| SITW | ≤ 0.2 |
| MVNM | ≤ 0.2 |
| AFAT | ≤ 0.2 |
| NAHT | ≤ 0.2 |
| IKAY | ≤ 0.2 |
| TTQK | ≤ 0.2 |
| SKFV | ≤ 0.2 |
| TILM | ≤ 0.2 |
| SNSQ | ≤ 0.2 |
| APFT | ≤ 0.2 |
| RSKN | 0.443 |
| ILEV | ≤ 0.2 |
| QQSE | ≤ 0.2 |
| SVGM | ≤ 0.2 |
| TGCR | ≤ 0.2 |
| INRT | ≤ 0.2 |
| EALT | ≤ 0.2 |
| ALSK | ≤ 0.2 |
| QSSI | ≤ 0.2 |
| FWYS | ≤ 0.2 |
| HDHI | ≤ 0.2 |
| WHHT | ≤ 0.2 |
| QAVT | ≤ 0.2 |

| Variant | one-hybrid fitness for binding parS DNA |
| --- | --- |
| RWWN | ≤ 0.2 |
| KALA | ≤ 0.2 |
| LYMW | ≤ 0.2 |
| SESF | ≤ 0.2 |
| VFHG | ≤ 0.2 |
| PLEC | ≤ 0.2 |
| PPGW | ≤ 0.2 |
| YKVR | ≤ 0.2 |
| PWPP | ≤ 0.2 |
| KPRG | ≤ 0.2 |
| QHDW | ≤ 0.2 |
| WYMG | ≤ 0.2 |
| IHVR | ≤ 0.2 |
| SMKA | ≤ 0.2 |
| RCDW | ≤ 0.2 |
| YYVT | ≤ 0.2 |
| SYRN | ≤ 0.2 |
| CDCG | ≤ 0.2 |
| PRHL | ≤ 0.2 |
| HRNT | ≤ 0.2 |
| NMAT | ≤ 0.2 |
| NHRG | ≤ 0.2 |
| MPFH | ≤ 0.2 |
| QSCK | ≤ 0.2 |

| Variant | one-hybrid fitness for binding parS DNA |
| --- | --- |
| VIYD | ≤ 0.2 |
| GMIG | ≤ 0.2 |
| MRTC | ≤ 0.2 |
| TWSL | ≤ 0.2 |
| CNDR | ≤ 0.2 |
| QAAE | ≤ 0.2 |
| HKQM | ≤ 0.2 |
| QFVT | ≤ 0.2 |
| PHNL | ≤ 0.2 |
| TKST | ≤ 0.2 |
| AGYV | ≤ 0.2 |
| NHDQ | ≤ 0.2 |
| DVNP | ≤ 0.2 |
| RASY | 0.459 |
| QAKV | ≤ 0.2 |
| PKDR | ≤ 0.2 |
| TTRF | ≤ 0.2 |
| LFKV | ≤ 0.2 |
| YCER | ≤ 0.2 |
| RWRS | 0.955 |
| HAPL | ≤ 0.2 |
| NMGD | ≤ 0.2 |
| LEFG | ≤ 0.2 |
| TPLN | ≤ 0.2 |

| Variant | one-hybrid fitness for binding parS DNA |
| --- | --- |
| QPGT | ≤ 0.2 |
| VCAF | ≤ 0.2 |
| LLPV | ≤ 0.2 |
| NGTG | ≤ 0.2 |
| VRKN | ≤ 0.2 |
| GAEM | ≤ 0.2 |
| CVSL | ≤ 0.2 |
| SATY | ≤ 0.2 |
| KDDG | ≤ 0.2 |
| PIVV | ≤ 0.2 |
| AGEF | ≤ 0.2 |
| TTFW | ≤ 0.2 |
| YSHM | ≤ 0.2 |
| KDGR | ≤ 0.2 |
| VSDG | ≤ 0.2 |
| ATCM | ≤ 0.2 |
| MFVY | ≤ 0.2 |
| SLPV | ≤ 0.2 |
| NRTV | ≤ 0.2 |
| IAAG | ≤ 0.2 |
| HRKD | ≤ 0.2 |
| SKNP | ≤ 0.2 |
| HMKA | ≤ 0.2 |
| LHNI | ≤ 0.2 |

| Variant | one-hybrid fitness for binding parS DNA |
| --- | --- |
| TCSP | ≤ 0.2 |
| DDTY | ≤ 0.2 |
| MTQS | ≤ 0.2 |
| QPYG | ≤ 0.2 |
| SVAW | ≤ 0.2 |
| RCGK | ≤ 0.2 |
| CVKV | ≤ 0.2 |
| ELHT | ≤ 0.2 |
| IDLL | ≤ 0.2 |
| WWNR | ≤ 0.2 |
| GKCG | ≤ 0.2 |
| NTNI | ≤ 0.2 |
| AGVL | ≤ 0.2 |
| QCMM | ≤ 0.2 |
| APYW | ≤ 0.2 |
| HRHC | 0.283 |
| RPRC | ≤ 0.2 |
| CYTS | ≤ 0.2 |
| KMNT | ≤ 0.2 |
| DETF | ≤ 0.2 |
| IDQS | ≤ 0.2 |
| CHRK | ≤ 0.2 |
| PKPN | ≤ 0.2 |
| SKCI | ≤ 0.2 |

| Variant | one-hybrid fitness for binding parS DNA |
| --- | --- |
| SFQS | ≤ 0.2 |
| LEWR | ≤ 0.2 |
| HGTL | ≤ 0.2 |
| SDGL | ≤ 0.2 |
| AEVR | ≤ 0.2 |
| YGRK | ≤ 0.2 |
| MLKQ | ≤ 0.2 |
| PATG | ≤ 0.2 |
| HQRH | ≤ 0.2 |
| SIYR | ≤ 0.2 |
| HDLE | ≤ 0.2 |
| NQTN | ≤ 0.2 |
| EGYT | ≤ 0.2 |
| TDAQ | ≤ 0.2 |
| KQSC | ≤ 0.2 |
| DSTL | ≤ 0.2 |
| RETL | ≤ 0.2 |
| RILA | 0.576 |
| SGVY | ≤ 0.2 |
| GKVG | ≤ 0.2 |
| TSQT | ≤ 0.2 |
| TVYM | ≤ 0.2 |
| HEPF | ≤ 0.2 |
| TCGR | ≤ 0.2 |

| Variant | one-hybrid fitness for binding parS DNA |
| --- | --- |
| AGRA | ≤ 0.2 |
| GEVW | ≤ 0.2 |
| RYTT | 0.884 |
| AQKT | ≤ 0.2 |
| DMTG | ≤ 0.2 |
| PWNR | ≤ 0.2 |
| LVMR | ≤ 0.2 |
| CQVE | ≤ 0.2 |
| NNHT | ≤ 0.2 |
| KPPC | ≤ 0.2 |
| PNNY | ≤ 0.2 |
| TSKH | ≤ 0.2 |
| IKTK | ≤ 0.2 |
| NILE | ≤ 0.2 |
| RCKG | 0.89 |
| STNW | ≤ 0.2 |
| SRYN | ≤ 0.2 |
| DSLR | ≤ 0.2 |
| HYMG | ≤ 0.2 |
| DMWG | ≤ 0.2 |
| KAIE | ≤ 0.2 |
| YDPD | ≤ 0.2 |
| RITD | ≤ 0.2 |
| YQRT | ≤ 0.2 |

| Variant | one-hybrid fitness for binding parS DNA |
| --- | --- |
| HQEM | ≤ 0.2 |
| ANSR | ≤ 0.2 |
| WPQT | ≤ 0.2 |
| DQVW | ≤ 0.2 |
| QQTA | ≤ 0.2 |
| RHTL | ≤ 0.2 |
| KTYC | ≤ 0.2 |
| HCLW | ≤ 0.2 |
| DCIF | ≤ 0.2 |
| PDVP | ≤ 0.2 |
| VTPI | ≤ 0.2 |
| FNRS | ≤ 0.2 |
| SEMR | ≤ 0.2 |
| MISG | ≤ 0.2 |
| WDGR | ≤ 0.2 |
| GGDQ | ≤ 0.2 |
| DVDY | ≤ 0.2 |
| EHIR | ≤ 0.2 |
| TKTR | ≤ 0.2 |
| QKEW | ≤ 0.2 |
| RIFN | 0.438 |
| SRQS | ≤ 0.2 |
| LIPS | ≤ 0.2 |
| IRDN | ≤ 0.2 |

| Variant | one-hybrid fitness for binding parS DNA |
| --- | --- |
| PLHY | ≤ 0.2 |
| QVSP | ≤ 0.2 |
| QMVR | ≤ 0.2 |
| KFCC | ≤ 0.2 |
| LQHE | ≤ 0.2 |
| HAMC | ≤ 0.2 |
| QDVH | ≤ 0.2 |
| VAIG | ≤ 0.2 |
| CAPE | ≤ 0.2 |
| MLNG | ≤ 0.2 |
| YKYT | ≤ 0.2 |
| MEAF | ≤ 0.2 |
| TRMK | ≤ 0.2 |
| PADM | ≤ 0.2 |
| EVWG | ≤ 0.2 |
| NCSN | ≤ 0.2 |
| EFEG | ≤ 0.2 |
| KETR | ≤ 0.2 |
| QGMC | ≤ 0.2 |
| QKVK | ≤ 0.2 |
| SHRG | ≤ 0.2 |
| INTV | ≤ 0.2 |
| SAGR | ≤ 0.2 |
| QTVT | ≤ 0.2 |

| Variant | one-hybrid fitness for binding parS DNA |
| --- | --- |
| KVVM | ≤ 0.2 |
| PLWG | ≤ 0.2 |
| KLKY | ≤ 0.2 |
| QKSP | ≤ 0.2 |
| FNAT | ≤ 0.2 |
| PEST | ≤ 0.2 |
| YGES | ≤ 0.2 |
| QRSN | ≤ 0.2 |
| EPLM | ≤ 0.2 |
| FDPR | ≤ 0.2 |
| TCIV | ≤ 0.2 |
| KSAQ | 0.228 |
| YSNS | ≤ 0.2 |
| PDKW | ≤ 0.2 |
| RCCL | ≤ 0.2 |
| YYWC | ≤ 0.2 |
| YGQL | ≤ 0.2 |
| PPLR | ≤ 0.2 |
| HMRT | ≤ 0.2 |
| DRFH | ≤ 0.2 |
| FNIG | ≤ 0.2 |
| AREN | ≤ 0.2 |
| CNTR | ≤ 0.2 |
| HTIA | ≤ 0.2 |

| Variant | one-hybrid fitness for binding parS DNA |
| --- | --- |
| EAVV | ≤ 0.2 |
| RMLM | 0.363 |
| TEAK | ≤ 0.2 |
| EDFT | ≤ 0.2 |
| FYMV | ≤ 0.2 |
| YTLN | ≤ 0.2 |
| PTGK | ≤ 0.2 |
| TAHG | ≤ 0.2 |
| LTRL | ≤ 0.2 |
| THHS | ≤ 0.2 |
| PGKE | ≤ 0.2 |
| RLYT | 0.943 |
| DVNG | ≤ 0.2 |
| LFRR | ≤ 0.2 |
| HSLE | ≤ 0.2 |
| PVNM | ≤ 0.2 |
| ITKI | ≤ 0.2 |
| AVQR | ≤ 0.2 |
| QYHS | ≤ 0.2 |
| ERST | ≤ 0.2 |
| HGMR | ≤ 0.2 |
| PCWK | ≤ 0.2 |
| LLPK | ≤ 0.2 |
| RTDW | ≤ 0.2 |

| Variant | one-hybrid fitness for binding parS DNA |
| --- | --- |
| MPDG | ≤ 0.2 |
| FVWT | ≤ 0.2 |
| SHMM | ≤ 0.2 |
| RVRE | ≤ 0.2 |
| RWNS | 0.926 |
| LQKS | ≤ 0.2 |
| PESE | ≤ 0.2 |
| VPFR | ≤ 0.2 |
| AAMN | ≤ 0.2 |
| VMSY | ≤ 0.2 |
| VGRW | ≤ 0.2 |
| QLLW | ≤ 0.2 |
| MWSR | ≤ 0.2 |
| LDNS | ≤ 0.2 |
| RFDY | 0.443 |
| KGDD | ≤ 0.2 |
| PEDS | ≤ 0.2 |
| RCMK | ≤ 0.2 |
| QPEN | ≤ 0.2 |
| IEQT | ≤ 0.2 |
| RHNE | ≤ 0.2 |
| LGIL | ≤ 0.2 |
| RQFG | 0.917 |
| QFML | ≤ 0.2 |

| Variant | one-hybrid fitness for binding parS DNA |
| --- | --- |
| STFR | ≤ 0.2 |
| GNSL | ≤ 0.2 |
| HKDW | ≤ 0.2 |
| PPTN | ≤ 0.2 |
| YHPT | ≤ 0.2 |
| EQRG | ≤ 0.2 |
| YTSL | ≤ 0.2 |
| CYCT | ≤ 0.2 |
| CTGM | ≤ 0.2 |
| ASKL | ≤ 0.2 |
| WWDR | ≤ 0.2 |
| MFTM | ≤ 0.2 |
| HSER | ≤ 0.2 |
| FDTD | ≤ 0.2 |
| HFAC | ≤ 0.2 |
| YPQL | ≤ 0.2 |
| SSCQ | ≤ 0.2 |
| VYQL | ≤ 0.2 |
